Test results taken from the supplement of paper PMC11417369.
The list shows a part of the results.

system: PfHDP1 homeodomain (GST-tagged); test: gcPBM binding intensity (ln(normalized median fluorescence intensity)); higher = stronger DNA binding
Outline: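 Binding of GST-tagged P. falciparum DNA-binding domains, expressed in E. coli and used at about 25 μg on average, was carried out for 1 h in 1× PBS containing 1% milk, 0.2 mg/ml BSA, 0.5% salmon testes DNA and 0.03% Triton X-100. The target was an Agilent 4 × 180k array of primer-extended double-stranded 36-bp intergenic genomic probes plus negative controls, read with Alexa488 anti-GST antibody at 488 nm. Binding intensity is the highest Masliner-normalised natural-log median intensity across replicate spots of either probe orientation.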

| Sequence | gcPBM binding intensity (ln) |
| --- | --- |
| TTTACATCCAAAAACTGTACACTTATTTTATAATTC [XGTACX_site5332] | 6.6 |
| ATCAAAAATATAAAAAATATAAACAATTTATTATCA [CACACA_negctrl_site768] | 6 |
| ATATATATAATATGTAGTACTTTCCTCTCAAATCAT [XGTACX_site7766] | 6.53 |
| AATAAGTAACAAAATACACACATATATATAATTATA [CACACA_site1837] | 6.67 |
| GAATCATATTTAAACACACATACATATATATATATA [CACACA_site3352] | 9.22 |
| AGTATATCAAAATACATACACACATTTGTATATACA [CACACA_site2697] | 6.46 |
| TTTTTTTTTTTTTTTTGTACACAAATTTATTGTCTA [XGTACX_site2680] | 6.22 |
| GTCCTCATCCACTATGCACACAAAAAAGAAATACAC [CACACA_site9131] | 10.5 |
| TACGTTATGTTGAATAGTACAATTTGGTGAACAGGT [XGTACX_site1729] | 7.06 |
| TTTCCAAATTGTTGACGGACACTCACGAATAGTTAT [XGTACX_site5720] | 6.27 |
| CATATGTATATGACTACACACAAGGGTGTACATATA [CACACA_site1164] | 6.35 |
| ACATGAAGATATTTTTGTCCGTACAAATTCATATGA [XGTACX_site1837] | 6.23 |
| TCATTTCAATACACAAGTACGTATATGGTTATATTG [XGTACX_site6021] | 6.52 |
| AATATAAAATAATGCACACATAAACAAAAAATCAAA [CACACA_site1371] | 10.4 |
| ATTCTATATATGTGCACACAAAAGATATATATATAT [CACACA_site2124] | 11.4 |
| TTACATGTACAAAAGTTGCACTTCATACACTTTTAT | 8.83 |
| TCATTTTATTATTCTACACACTTATCTATAATTACA [CACACA_site6168] | 6.66 |
| CGAAGGTTTGGCCATGCATGTTATAAGAATATATGT [TGCATGCA_site441] | 6.57 |
| AAAATTAAAAATTACTGTACGTATTAGAGAATAAAT [XGTACX_site2567] | 6.33 |
| AAAAAATATTGAAGTACACACATTATAAACTTTTTT [CACACA_site5029] | 6.28 |
| ACCTAATTCAAATACAGTACATATACAATATATATA [XGTACX_site2779] | 6.69 |
| AAAATATTAATTAATACATGCATATATATATATATA [TGCATGCA_site585] | 9.3 |

| Sequence | gcPBM binding intensity (ln) |
| --- | --- |
| TATATTGTATAAAAATGTACATGCAATAAATTTAGT [XGTACX_site5621] | 7.32 |
| TACATTAACGGATTATTTCTCAATACAACATCATTT [CACACA_negctrl_site981] | 6.27 |
| GTTTGTATGTCCAAATGTACATATGATTTTATGAAA [XGTACX_site6595] | 6.53 |
| TATATTATAATAAGACGTACAAGGATGTTAAAACTT [XGTACX_site5828] | 6.59 |
| TTAATTATGGACAGGGTGCACATGAATAATAATACC | 9.71 |
| ATGTTTTATATTTTTTTTTTGTTTGCTTGTTTCCTC [CACACA_negctrl_site870] | 6.61 |
| AAGGGAAATATTGAAACACACACGAACCCACGTATT [CACACA_site252] | 6.35 |
| ATACTAAATGAACACACACACATATATATATATAAT [CACACA_site4232] | 6.86 |
| AACAGACATAGAAACACACATACATACATACATACA [CACACA_site2479] | 7.76 |
| AAATAAATATATAATACACACAAAAATATAAAATGG [CACACA_site5943] | 6.96 |
| TATAACTTTTTTATTACACACCTATGTAATATTATA [CACACA_site944] | 6.61 |
| ATAGTATACAGACACACACACACACCCATATATATA [CACACA_site1736] | 7.1 |
| AGGATATAAATATTCACACACACATGGAGATATATA [CACACA_site6317] | 6.41 |
| TTATAATATTAATGTGCACACAATTAAAATATTATA [CACACA_site2046] | 10.7 |
| TACTGTGTTTTGGTTGTACACACGCTACATTATATA [CACACA_site8863] | 7.26 |
| TTCTTAAATGTAAATGTATATGTATTAAAAAGAGAA [TGCATGCA_negctrl_site597] | 6.64 |
| GTTAAGGGTATATATACACACATATGTAATACATGA [CACACA_site5650] | 6.93 |
| TCCATCCACATATATGTACACACATATATATATATA [CACACA_site8970] | 9.23 |
| TATACATTTATGTACACACACATATATGTATATTTA [CACACA_site2966] | 6.33 |
| AATAAATATCAATACACACACACAAAAGTGAATAAA [CACACA_site3763] | 6.88 |
| ACAATTTTATTTAAAGTGCATGTAAAATTAAAACTT | 7.44 |
| AAAGGAAGAAAAAATAGTACATATATATATATATAA [XGTACX_site766] | 6.78 |

| Sequence | gcPBM binding intensity (ln) |
| --- | --- |
| TTTTGTTAGTTTTTTTTCTTATATTACATTTTCACG [CACACA_negctrl_site1466] | 6.47 |
| TTTTTTATATTAAATGAAGAATATACAAAATTTTAA [CACACA_negctrl_site558] | 6.23 |
| ATGTAGTCTCAAGACTGTACAAACAAGTAAATAAAA [XGTACX_site4120] | 6.8 |
| AAATTATAAATAATTTGTACATAAAAATTGGTAAAG [XGTACX_site5197] | 6.61 |
| ACATGTGAAGGGAACATAAATTGGGGTTTTATATTG [XGTACX_negctrl_site508] | 7.06 |
| GAATATAAAAAAGAATGTACTTGAACAGTCCTAAAA [XGTACX_site745] | 5.83 |
| TTTTTTGCTTTCAACACACATACAATCTATATAATC [CACACA_site4125] | 6.77 |
| TAAACCTGTAGAGATGCATGCATTGTTAACATGGTG [TGCATGCA_site515] | 6.65 |
| AAGGAGAAATAAATATTAAAAAATTTATATATATAT [CACACA_negctrl_site1801] | 8.74 |
| TTCTTTTTTAACAACAAAAAAAAAAAAAAAAAAAAA [TGCATGCA_negctrl_site87] | 6.03 |
| TAATATTGCAAATATAAAAAAAAATAAACCATATAT [XGTACX_negctrl_site458] | 7.85 |
| CATTATAAAAAATAAAAAAGAAATAATTGTATATGC [CACACA_negctrl_site478] | 6.62 |
| ATGAAATATATTATATGTACATATTTATTTTTTATA [XGTACX_site7319] | 6.34 |
| ATTTTTTACGTATAGTACAAAGTTTTATGATACATA [CACACA_negctrl_site965] | 6.26 |
| AAATGCTAAAAATAGAGTACAGATAACGAAAAGTGT [XGTACX_site8830] | 7.28 |
| AAATAGTAAATAAGGGGTACAAAAAAAAAAAAAAAA [XGTACX_site8362] | 6.3 |
| AAAAAATTGACTAATGCACACAATTACATATATATA [CACACA_site1689] | 10.2 |
| AATTGTTCTATGATTTGTACACACTTTTTTTTAAAA [XGTACX_site5984] | 6.95 |
| ATTATAAATACACGCACACACACTTATATATATATA [CACACA_site5776] | 8.95 |
| CAATTTTTCTATCATTGTACTTTTATATAATAGTGT [XGTACX_site1810] | 6.4 |
| GCATTGATCAAACATACACACATGGTTAATAAAAAT [CACACA_site2085] | 6.74 |
| TTTATATAATATTCTACACACCAACAACAAACATAT [CACACA_site4478] | 7.17 |

| Sequence | gcPBM binding intensity (ln) |
| --- | --- |
| ATATATATATATAATACACACATAAATGAATATATA [CACACA_site316] | 8.93 |
| GTGATTTCTATGAATTGTACTTAAATATAGTTATAT [XGTACX_site231] | 6.21 |
| CGTCCAAAATATCCTTCACACACGAACAGTTTCATT [CACACA_site2729] | 6.79 |
| CTATAATATTATAACAGTACATAATATTATATATAT [XGTACX_site1414] | 6.67 |
| TTTAAATAAAAATGGAGTACTCTAAAAAAAAAAAAA [XGTACX_site1233] | 6.47 |
| TATTTTTTTAAAATAGGTACACAATCAAACATTTAT [XGTACX_site8785] | 6.51 |
| ACCTCATAATATTTAACACACAAAATTATCTGTATG [CACACA_site5015] | 6.94 |
| TTATAGACATATATAGGTACACATATTTTCAATCCC [XGTACX_site8230] | 6.79 |
| ATTTATTAATCATATACACACATATATTTGTATTTA [CACACA_site1336] | 6.74 |
| ATTTTTAATTTTTTCACACATATATTTAAAATAAAA [CACACA_site4799] | 6.49 |
| ATTCTAATTTTATGAAACGATTATTTTGAATTCATT [XGTACX_negctrl_site578] | 6.26 |
| ATAAAAAAAAATATATGTACATATATAAATTGATAT [XGTACX_site7409] | 6.94 |
| GATTACCTTTTTTTTTTTTTTTTTTTTTTTTTTTTC [CACACA_negctrl_site147] | 5.86 |
| CTTTTTTTTTTGTATTGTACTTTATTTTTACATCGT [XGTACX_site2918] | 6.75 |
| ATATGAAAAACTTCATGTACTTATTATAAAATATAA [XGTACX_site2725] | 6.01 |
| TGAAATGAAAGAACAGCACACATATATATTATATAT [CACACA_site8613] | 6.66 |
| TATATTTTTTAAAAAAGTACAAAGTAATTATTGATT [XGTACX_site2420] | 6.47 |
| GTAGTACATTCTAGAATACACACCTATATATATATA [CACACA_site522] | 9.04 |
| ATAAAAAAAAAAAATACACACATATATATATATATA [CACACA_site1709] | 9.35 |
| TTCTTAAAAAATCAAACACACATATATAAATACATA [CACACA_site5301] | 6.52 |
| AAAAAATATAAAAAAACACACAAAAAAAAAAAAAAA [CACACA_site1382] | 5.98 |
| CCCCATTTATCTTAAGCATGCCATGGTTTTAGATAT [TGCATGCA_site24] | 7.16 |
